Sequences and labels used below:
B1: AbG-CZ (conjugate)
heavy: EVQLQESGPGLVKPSQTLSLTCTVSGYSISNDFAWNWIRQLPGKGLEWMGYISYKGNTRYQPSLKSRITISRDTSKNQFFLKLNSVTAADTATYYCVTASRGLPYWGQGTLVTVSS[here human IgG1 constant region without letters]
light: DIQMTQSPSSMSVSVGDRVTITCHSSQDITYNIGWLQQKPGKSFKGLIYHGANLDDGVPSRFSGSGSGTDYTLTISSLQPEDFATYYCVQYDEFPWTFGGGTKLEIKRTVAAPSVFIFPPSDEQLKSGTASVVCLLNNFYPREAKVQWKVDNALQSGNSQESVTEQDSKDSTYSLSSTLTLSKADYEKHKVYACEVTHQGLSSPVTKSFNRGEC
B2: AbK-TV (conjugate)
heavy: B1 heavy with N31R, L41P, K55N, L103F, Y105W
light: B1 light with I33V, A52S, D56H, E93D
B3: AbK-WD (conjugate)
heavy: B1 heavy with N31R, L41P, K55N, L103F, Y105W
light: B1 light with I33V, A52S, D56H, E93D
B4: AbK-TX (conjugate)
heavy: B1 heavy with N31R, L41P, K55N, L103F, Y105W
light: B1 light with I33V, A52S, D56H, E93D
B5: AbG-TX (conjugate)
heavy: B1 heavy
light: B1 light
B6: AbG-YY (conjugate)
heavy: B1 heavy
light: B1 light
B7: AbK-AAD (conjugate)
heavy: B1 heavy with N31R, L41P, K55N, L103F, Y105W
light: B1 light with I33V, A52S, D56H, E93D
modifications: non-natural residues
B8: AbG-AAD (conjugate)
heavy: B1 heavy
light: B1 light
modifications: non-natural residues
B9: AbG-TV (conjugate)
heavy: B1 heavy
light: B1 light
B10: AbG-WD (conjugate)
heavy: B1 heavy
light: B1 light
B11: AbK-LB (conjugate)
heavy: B1 heavy with N31R, L41P, K55N, L103F, Y105W
light: B1 light with I33V, A52S, D56H, E93D
B12: AbK-YY (conjugate)
heavy: B1 heavy with N31R, L41P, K55N, L103F, Y105W
light: B1 light with I33V, A52S, D56H, E93D
B13: AbG-LB (conjugate)
heavy: B1 heavy
light: B1 light

Where a chain is given by its changes, count along the chain named.

One data set concerns Mcl-1−/− MEFs expressing huEGFR. As to the kind of experiment: Cell viability (CellTiter-Glo) of mcl-1-/- MEFs expressing huEGFR. It counts as cell-based, mouse. As to conditions: 96 hours treatment, read-out: huEGFR+ mcl-1−/− MEF EC50. The text has this: (§1) The cytotoxicity of the anti-EGFR antibodies AbB, AbG, AbK, and AbL as Bcl-xL ADCs against the EGFR positive non-small cell lung cancer cells (NCI-H1650) was compared to non-targeting MSL109 isotype matched exemplary ADCs. To further evaluate the in vitro efficacy of these exemplary EGFR-targeted Bcl-xL-ADCs, human EGFR was over-expressed in mcl-1^−/− mouse embryonic fibroblasts (MEFs). Mcl-1 refers to the gene myeloid cell leukemia 1. Mcl-1^−/− MEFs are dependent upon Bcl-xL for survival (Lessene et al., 2013, Nature Chemical Biology 9:390-397).
(§2) Retroviral supernatants were produced through transfection of the GP2-293 packaging cell line (Clontech) with the retroviral construct pLVC-IRES-Hygro (Clontech) containing huEGFR sequence or the empty vector utilizing FuGENE 6 transfection reagent (Roche Molecular Biochemicals, Mannheim, Germany). After 48 hours of culture, virus-containing supernatant was harvested and applied to mcl-1^−/− MEFs in 75 cm^2 culture flasks (0.5×10^6 per flask) for a further 48 hours in the presence of polybrene (8 μg/ml; Sigma). Mcl-1^−/− MEFs were washed and selected after 3 days with 250 µg/ml hygromycin B (Invitrogen) in the full complement of media. The expression of huEGFR was confirmed by flow cytometry and compared to the parental cell line or those transfected with the empty vector.
(§3) Mcl-1^−/− MEFs expressing huEGFR or the pLVX empty vector (Vct Ctrl) were treated with AB033-targeted Bcl-xL-ADCs, AB033 alone or MSL109-targeted Bcl-xL-ADCs for 96 hours in DMEM containing 10% FBS. For the assay, the cells were plated at 250 cells per well in 384-well tissue culture plates (Corning, Corning, NY) in a total volume of 25 μL of assay media (DMEM and 10% HI FBS). The plated cells were treated with a 4-fold serial dilution of the Antibody Drug Conjugates of interest from either 1 μM or 0.5 μM to either 1 50 μM or 25 μM, respectively 1 μM to 1 μM dispensed by an Echo 550 Acoustic Liquid Handler (Labcyte). Each concentration was tested in at least three replicates for the Mcl-1^−/− MEF huEGFR cell line and for the Mcl-1^−/− MEF vector cell line. The fraction of viable cells following 96 hours of Antibody Drug Conjugate treatment at 37° C. and 5% CO2 was determined using the CellTiter-Glo Luminescent Cell Viability Assay according to the manufacturer's recommendations (Promega Corp., Madison, WI). The plates were read in a Perkin Elmer Envision using a Luminescence protocol with 0.1 see integration time. The replicate values for each dilution point were averaged and the EC50 values for the Antibody Drug Conjugates were generated by fitting the data with GraphPad Prism 5 (GraphPad Software, Inc.) to a sigmoidal curve model using linear regression, Y=((Bottom-Top)/(1+((x/K)^n)))+Top, where Y is the measured response, x is the compound concentration, n is the Hill Slope and K is the EC50 and Bottom and Top are the lower and higher asymptotes respectively. Visual inspection of curves was used to verify curve fit results. Mcl-1^−/− MEFs were obtained from David C. S. Huang of the Walter and Eliza Hall Institute of Medical Research.
Background: In ATP-based viability assays light output follows the ATP content of the culture.
B1: the EC50 is 3.4 nM.

Take B2: the EC50 was 0.15 nM.

Regarding B3, the EC50 worked out at 35 nM.

As for B4, the EC50 was 0.79 nM.

B5: the EC50 is 5.3 nM.

On to B6, for which the EC50 was greater than 500 nM.

For the molecule B7, the EC50 was 0.4 nM.

Turning to B8, the EC50 was 108 nM.

With B9, the EC50 worked out at 2.6 nM.

In the case of B10, the EC50 amounted to 5.8 nM.

Consider B11, for which the EC50 was 17 nM.

For B12, the EC50 stood at 47 nM.

B13: the EC50 is 24 nM.

A further data set has as its system Mcl-1−/− MEF vector cell line (pLVX empty vector, Vct Ctrl). The data set can be described thus: Cell viability (CellTiter-Glo) of mcl-1-/- MEF vector control. Type of data set: cell-based, mouse. Conditions: 96 hours treatment.
From the text: as §1, §2, §3
For the molecule B1, the EC50 stood at 194 nM.

B2 had an EC50 of 455 nM.

Regarding B4, the EC50 is greater than 1000 nM.

For B5, the EC50 is 368 nM.

The molecule B6 came in with an EC50 greater than 500 nM.

Molecule B7 came in with an EC50 greater than 500 nM.

Molecule B8 displayed an EC50 greater than 500 nM.

B9 had an EC50 of 196 nM.

In turn, B12 registered an EC50 greater than 1000 nM.

In a further data set the test system is NCI-H1650 cells. The data set can be described thus: NCI-H1650 eGFP spheroid growth (GFP fluorescence and CellTiter-Glo 3D). It counts as cell-based. As to conditions: spheroids, 6 days, CellTiter-Glo 3D luminescence.
From the text: as §1
NCI-H1650 cells stably overexpressing eGFP were maintained in RPMI media (Invitrogen cat #22400) containing 10% Fetal Bovine Serum (Invitrogen cat #10082). The cells were removed from plates with Trypsin and plated at 300 cells/well in 25 μL of the same media in Corning 384 well spheroid plates (cat #3830). The plates were centrifuged at 500×g for 5 minutes and placed in an Essen INCUCYTE Zoom Live Cell Analysis System in a 37° C. with 5% CO2 and 95% humidity. The cells were allowed to form spheroids for 3 days before dosing with an equal volume of the antibody drug conjugates at 2× the indicated concentration. The spheroids were incubated for an additional 6 days while monitoring growth and GFP Fluorescence in the Incucyte Zoom prior to addition of 40 μL of Promega CELLTITER-GLO 3D (cat #G968B) and subsequent luminescent reading. IC50s were determined from both the final GFP fluorescence monitored by the Incucyte Zoom (referred to as “H1650 GFP Fluorescence EC50 (μg/mL)” in Table 8) and the chemiluminescent readings from the CellTiter-Glo reagent (referred to as “H1650 CTG-3D EC50 (μg/mL)” in Table 8).
For B1, the “H1650 CTG-3D EC50” value was 0.07 µg/mL.

Regarding B2, the “H1650 CTG-3D EC50” value was determined as 0.05 µg/mL.

Consider B3, for which the “H1650 CTG-3D EC50” value was determined as 4.36 µg/mL.

Regarding B4, the “H1650 CTG-3D EC50” value is 1.07 µg/mL.

Regarding B5, the “H1650 CTG-3D EC50” value came to 0.15 µg/mL.

Consider B6, for which the “H1650 CTG-3D EC50” value was 0.4 µg/mL.

For B7, the “H1650 CTG-3D EC50” value was 0.01 µg/mL.

Turning to B8, the “H1650 CTG-3D EC50” value was found to be 0.02 µg/mL.

With B9, the “H1650 CTG-3D EC50” value came to 0.03 µg/mL.

For the molecule B10, the “H1650 CTG-3D EC50” value worked out at 2.03 µg/mL.

With B11, the “H1650 CTG-3D EC50” value amounted to 1.23 µg/mL.

As for B12, the “H1650 CTG-3D EC50” value stood at 0.49 µg/mL.

Take B13: the “H1650 CTG-3D EC50” value is 1.68 µg/mL.

Still in this data set, the particulars now being: spheroids, 6 days, final GFP fluorescence (Incucyte Zoom).
Regarding B1, the “H1650 GFP Flourescence EC50” value worked out at 0.25 µg/mL.

On to B2, for which the “H1650 GFP Flourescence EC50” value turned out to be 0.16 µg/mL.

B3: the “H1650 GFP Flourescence EC50” value turned out to be 2.57 µg/mL.

Consider B4, for which the “H1650 GFP Flourescence EC50” value was 1.47 µg/mL.

For the molecule B5, the “H1650 GFP Flourescence EC50” value turned out to be 0.51 µg/mL.

Turning to B6, the “H1650 GFP Flourescence EC50” value stood at 1.1 µg/mL.

Turning to B7, the “H1650 GFP Flourescence EC50” value came to 0.06 µg/mL.

In the case of B8, the “H1650 GFP Flourescence EC50” value was determined as 0.03 µg/mL.

Take B9: the “H1650 GFP Flourescence EC50” value is 0.04 µg/mL.

B10: the “H1650 GFP Flourescence EC50” value was determined as 0.36 µg/mL.

Take B11: the “H1650 GFP Flourescence EC50” value was 1.33 µg/mL.

As to B12, the “H1650 GFP Flourescence EC50” value worked out at 1.09 µg/mL.

Regarding B13, the “H1650 GFP Flourescence EC50” value worked out at 1.62 µg/mL.

A further data set concerns NCI-H1650 xenograft. As to the kind of experiment: NCI-H1650 flank xenograft model of NSCLC in mice. Conditions: Table 10; 10 mg/kg/day QDx1/IP. It counts as in vivo, mouse.
The molecule B5 yielded a TGImax of 88%.

Tested on in the next data set: not listed separately
The data set can be described thus: Size exclusion chromatography, % aggregate fraction of ADC. Type of data set: physicochemical. Conditions: absorbance at 280 nm. As for the experimental part: The DAR and percentage aggregation of exemplary ADCs synthesized as described in Example 3, above, were determined by LC-MS and size exclusion chromatography (SEC), respectively.
Size exclusion chromatography (SEC) was performed using a Shodex KW802.5 column in 0.2M potassium phosphate pH 6.2 with 0.25 mM potassium chloride and 15% isopropyl alcohol at a flow rate of 0.75 ml/min. The peak area absorbance at 280 nm was determined for each of the high molecular weight and monomeric eluents by integration of the area under the curve. The % aggregate fraction of the conjugate sample was determined by dividing the peak area absorbance at 280 nm for the high molecular weight eluent by the sum of the peak area absorbances at 280 nM of the high molecular weight and monomeric eluents multiplied by 100%.
(SEC sorts molecules by how far they enter the pores of the column.)
On to B1, for which the “% Agg (by SEC)” value is reported as 4%.

For B2, the “% Agg (by SEC)” value amounted to 2.6%.

Turning to B3, the “% Agg (by SEC)” value is listed as 4.9%.

For the molecule B4, the “% Agg (by SEC)” value is on record as 1.6%.

B5: the “% Agg (by SEC)” value was found to be 1.6%.

As for B6, the “% Agg (by SEC)” value is listed as 16.5%.

Consider B7, for which the “% Agg (by SEC)” value worked out at 3.6%.

On to B8, for which the “% Agg (by SEC)” value stood at 2.5%.

For the molecule B9, the “% Agg (by SEC)” value came to 1.4%.

As for B10, the “% Agg (by SEC)” value is recorded as 3.2%.

Regarding B11, the “% Agg (by SEC)” value stood at 13.6%.

Regarding B12, the “% Agg (by SEC)” value was 20%.

For the molecule B13, the “% Agg (by SEC)” value is 15.3%.
